Screen size: about 52,000 compounds; about 4,300 (8.3%) were called active. No stated cut-off is given here; in the data, active means survival mostly below about 52% (no sharp cut-off); inactive means mostly above about 56%. This is one part of the list.

This assay concerns DeltatarO mutant. Put plainly: growth inhibition of S. aureus wild type versus tarO mutant, primary screen, teichoic acid synthesis inhibitors, RN4220, OD600 (AID 463173). The following applies: OD600, 18 h, hits give low values, screened at 18.75 µg/mL (by protocol).
For `Cc1cccc(C(=O)N2CCNC(=O)C2CC(=O)Nc2ccc(F)cc2)c1` (configuration not stated), the survival is inactive: 75%.

As for `COC(=O)c1cc2oc3ccccc3c2n1CC(=O)Nc1cccc(SC)c1`, the survival was inactive: 63%. As to `Oc1ccccc1C(C#Cc1ccccc1)N1CCOCC1` (configuration not stated), the survival is inactive: 83%. As for `Cc1cccc(NC(=O)Cn2c(=O)n(CCc3ccccc3)c(=O)c3ccccc32)c1`, the survival is inactive: 82%. The value for `COc1ccc(NC(=O)C2=C(C)Nc3ncnn3C2c2sccc2C)cc1` (configuration not stated) was inactive: 87%. The value for `CC(=O)N1CCCC1c1nc2ccccc2n1Cc1c(F)cccc1Cl` (configuration not stated) was inactive: 74%; that for `COc1cc(OC)c(NC(=O)Cc2c(C(=O)O)c(C)cn2C)cc1Cl` was inactive: 88%; that for `Cc1ccc2oc(=O)n(CCNC(=O)Nc3ccccc3C)c2c1` was inactive: 109%. For `COc1ccc(OC2CCN(S(=O)(=O)c3cccc(F)c3)CC2)cc1`, the survival was inactive: 86%.

As for `CC(C)(C)c1ccc(C(=O)NCCN2CCCC2)cc1`, the survival was inactive: 95%.

As for `Cc1ccc(CNC(=O)Cc2c(C(=O)O)c(C)cn2C)cc1`, the survival was inactive: 89%. Turning to `CCCCn1c(=O)c2oc3ccccc3c2n(CC(=O)Nc2cc(C)ccc2C)c1=O`, the survival was active: 44%. `O=C(CC1C(=O)OCCN1Cc1ccccc1)Nc1cccc(Cl)c1` (configuration not stated): the survival was inactive: 170%.

Consider `Cc1ccc(CCNC(=O)CN2C(=O)COc3ccc(S(=O)(=O)N4CCCC4)cc32)cc1`, for which the survival was inactive: 74%. For `Cc1cc(C)cc(NC(=O)c2nnn(Cc3cccc(Br)c3)c2N)c1`, the survival is inactive: 72%.

Turning to `CCOc1cc(Cn2c(-c3ccc(O)c(OCC)c3)nc3ccccc32)ccc1O`, the survival is inactive: 73%. As to `CCCCC(=O)N1CC(=O)Nc2ccc(F)cc2C1c1ccc(F)cc1` (configuration not stated), the survival was inactive: 60%. Take `CCn1c(CNC(=O)C23CC4CC(CC(C4)C2)C3)nnc1SCC(=O)Nc1ccc(C)cc1`: the survival was inactive: 60%. On to `CN=C1S/C(=C\c2cn(CC(=O)NCc3ccco3)c3ccccc23)C(=O)N1C`, for which the survival was inactive: 57%. The value for `CC(=O)OC(C(=O)NC1CCCCC1)c1ccccc1` (configuration not stated) was inactive: 94%; that for `CC(=O)c1ccc(NC(=O)c2sc(-n3nc(C)c(CCC(C)C)c3C)nc2C)cc1` was inactive: 65%; that for `Cc1ccc(S(=O)Cc2ccc(C(=O)NCc3ccc(OC(C)C)cc3)o2)cc1` (configuration not stated) was inactive: 51%.

With `Cc1nc2c3cccnc3nn2c(C)c1CCC(=O)NCc1ccccc1Cl`, the survival was inactive: 120%. The value for `O=C1CC(SCc2nc3ccccc3[nH]2)C(=O)N1c1ccc(F)cc1` (configuration not stated) was inactive: 83%; that for `Cc1ccc2c(Sc3ccccc3)c(C(=O)NCc3ccccc3F)[nH]c2c1` was inactive: 90%. The value for `CCOc1ccccc1NC(=O)CSc1nc2ccccc2nc1Cc1ccc(C)cc1` was inactive: 78%; that for `CCCc1cnc2c(c1SCc1cccc(C)c1)c(=O)n(C)c(=O)n2C` was inactive: 60%. In the case of `CCCOc1cccc(C(=O)Nc2cc(-c3nc4ccccc4[nH]3)ccc2C)c1`, the survival was active: 56%. With `COC(=O)CSc1nc2c(cc1C#N)CCCC2`, the survival is inactive: 106%. The value for `COc1cc(OC)c(NC(=O)c2sc3nc4n(c(=O)c3c2C)CCCC4)cc1Cl` was inactive: 64%; that for `COc1ccc(S(=O)(=O)NCCc2sc(C)nc2C)cc1` was inactive: 70%. The value for `Cc1ccc(Cn2ccn(Cc3ccc(C)cc3)c(=O)c2=O)cc1` was inactive: 97%.

Regarding `CC1CCc2onc(C(=O)N3CCN(c4ccc(Cl)cc4)CC3)c2C1` (configuration not stated), the survival is inactive: 92%. Turning to `CCOc1ccc(CNC(=O)CCCn2nc(C)c3c(C)n(-c4ccc(C)cc4)nc3c2=O)cc1`, the survival is inactive: 74%. `COc1ccc(N2C(=O)NC(NS(=O)(=O)c3ccc(NC(C)=O)cc3)(C(F)(F)F)C2=O)cc1` (configuration not stated): the survival was inactive: 91%. `CCc1c(C)sc2c1CCN(C(=O)Nc1ccccc1Cl)C2c1ccc(OC)cc1` (configuration not stated): the survival was inactive: 101%. In the case of `Cc1cc(Cl)ccc1NC(=O)C1CCCN1S(=O)(=O)c1ccc2c(c1)CCCC(=O)N2` (configuration not stated), the survival was inactive: 102%. As for `Cc1ccc(-c2noc(-c3ccc(NC4CCCC4)c([N+](=O)[O-])c3)n2)cc1`, the survival was inactive: 98%. For `CCc1ccc2c(c1)C1(NN=C(c3ccccc3)S1)C(=O)N2` (configuration not stated), the survival is active: 0%. The value for `Cc1cc(-n2c(SCc3ccccc3F)nc3[nH]ncc3c2=O)ccc1Cl` was inactive: 94%; that for `CC(C)(C)OC(=O)N1CCC(c2nnc(SCc3ccccc3Cl)o2)CC1` was active: -1%; that for `COc1ccc(Cl)cc1NC(=O)C(C)n1c(=O)cc(C(F)(F)F)c2c(C)nn(C)c21` (configuration not stated) was inactive: 117%. Turning to `CS(=O)(=O)c1ncc(N(Cc2ccco2)Cc2cccs2)c(C(=O)Nc2ccccc2F)n1`, the survival was active: 41%.

With `COc1ccccc1CNC(=O)C1CCN(c2ncnc3c2nc2n3CCCCC2)CC1`, the survival is inactive: 94%.

On to `CC(C)CCNC(=O)c1c[nH]c2ccc(S(=O)(=O)Nc3cccc(C(F)(F)F)c3)cc2c1=O`, for which the survival was inactive: 74%. For `CCc1ccc(-n2c3nc(=O)[nH]c(=O)c-3cc3c(C)nn(-c4ccccc4)c32)cc1`, the survival was inactive: 81%. In the case of `COc1ccc(C(CNC(=O)c2oc3ccccc3c2C)N2CCCCC2)cc1` (configuration not stated), the survival is inactive: 88%.

As for `CCc1ccc(NC(=O)Cn2cnc3nc4c(cc3c2=O)CCCC4)cc1`, the survival is inactive: 128%.

`CCOC(=O)c1cc2c(=O)n3ccccc3nc2n(CC(C)C)c1=NC(=O)C(C)(C)Oc1ccc(Cl)cc1`: the survival is active: 31%. The value for `COc1ccc(CNC(=O)Cc2c(C)c3c(O)cc(C)cc3oc2=O)cc1` was inactive: 66%; that for `Cc1ccc(C)c(N2CCN(C(=O)CCc3c(C)nc4c(c3C)c(=O)n(C)c(=O)n4C)CC2)c1` was inactive: 97%; that for `CCN1CCN(C(=O)Cn2c(-c3cccs3)cc3cc(Cl)ccc32)CC1` was inactive: 90%.

With `COc1cc(Cl)c(C)cc1NC(=O)c1c(C)oc2nc(C)nc(N3CCCC3)c12`, the survival is inactive: 99%.

As to `Cc1noc(-c2ccc(N3CCCCC3C)c([N+](=O)[O-])c2)n1` (configuration not stated), the survival was inactive: 108%. As to `CCc1nnc(NC(=O)CSc2nccn2Cc2ccccc2)s1`, the survival was inactive: 69%. The value for `O=C(Cn1c(-c2cccs2)cc2ccccc21)NCCCN1CCN(c2cccc(Cl)c2)CC1` was inactive: 67%; that for `O=C1CCCc2cc(S(=O)(=O)N3CCCC(C(=O)NCc4ccccc4Cl)C3)ccc2N1` (configuration not stated) was inactive: 92%. As to `NCc1ccc2[nH]c(=O)[nH]c2c1`, the survival was inactive: 93%. Regarding `O=C(NCc1ccccc1)C(c1ccccn1)N(C(=O)c1csnn1)C1CC1` (configuration not stated), the survival is inactive: 83%. Turning to `COc1cccc(CNC(=O)C(Cc2ccccc2)NS(=O)(=O)c2ccc3c(c2)CCN3C(C)=O)c1` (configuration not stated), the survival is inactive: 70%.

For `CCOc1ccccc1CNC(=O)c1ccc2c(c1)N(CC)CCS2`, the survival was inactive: 50%. For the compound `COc1cc(C(=O)Nc2sc3c(c2C#N)CCCC3)c(Br)c(OC)c1OC`, the survival was inactive: 75%.

As for `Cc1ccc(NC(=O)CCc2nc(-c3ccccc3F)no2)c(C)c1`, the survival is inactive: 93%. Consider `Nc1nnc(CCS(=O)(=O)c2ccc3ccccc3c2)s1`, for which the survival was inactive: 78%. The value for `CN1CCCCc2c1nc1ccccc1c2N` was inactive: 93%; that for `CS(=O)(=O)c1ncc(Cl)c(C(=O)N(Cc2ccc(Cl)cc2)Cc2ccco2)n1` was active: 4%; that for `Cc1cccc(OCC(=O)Nc2nnc(S(=O)(=O)N3CCCCCC3)s2)c1` was active: 48%. As for `Cc1ccc(-n2nc(C(=O)NC(C)C)c(=O)n(C)c2=O)cc1`, the survival was inactive: 78%. Take `Cc1ccc(-n2c(=O)c3oc4ccccc4c3n(Cc3ccccc3)c2=O)cc1C`: the survival was inactive: 57%. For the compound `O=C(/C=C/c1ccc(F)cc1)NC(=S)NCc1ccco1`, the survival was inactive: 68%.

With `CC1CCCN(C(=O)Cc2cccc3ccccc23)C1` (configuration not stated), the survival is inactive: 98%. As to `CCOC(=O)c1ccc(N2C(=O)CC(N3CCN(c4ccc(O)cc4)CC3)C2=O)cc1` (configuration not stated), the survival is inactive: 96%. `O=C(Nc1ccc(-c2nnn(CC(=O)N3CCN(C(=O)c4ccco4)CC3)n2)cc1)c1ccccc1F`: the survival is inactive: 74%.

For the compound `CCC(=O)N1CCc2cc(CNS(=O)(=O)c3ccccc3F)ccc21`, the survival was inactive: 76%. Consider `Cc1ccc(NC(=O)C(Cc2ccccc2)NS(=O)(=O)c2ccc3c(c2)oc(=O)n3C)cc1C` (configuration not stated), for which the survival is inactive: 72%. For `CCc1cccc2c(C=C(C#N)C#N)cn(CC(=O)N3CCCCCC3)c12`, the survival was inactive: 77%. The value for `CC(C)(C)C(=O)Cn1c(=O)n(CCCCCC(=O)NCc2ccccc2Cl)c(=O)c2sccc21` was inactive: 56%. The value for `COc1cc(OC)cc(-c2nc3nc(C)c(CCC(=O)Nc4ccccc4)c(C)n3n2)c1` was inactive: 73%; that for `O=C(Cc1ccccc1)Nc1nc2ccccc2s1` was inactive: 105%; that for `CC(=O)c1ccc(N2CCN(C(=O)Nc3cn(CC(C)C)c(=O)c4ccccc34)CC2)cc1` was inactive: 80%. On to `CCOC(=O)c1c(C)[nH]c(C)c1S(=O)(=O)NCC(=O)Nc1cc(Cl)ccc1OC`, for which the survival is active: -4%. Consider `CC(=O)c1ccc(NC(=O)COc2ccccc2-c2nc(C(C)C)no2)cc1`, for which the survival is active: 55%. For the compound `CCOC(=O)C1CCN(S(=O)(=O)c2cc(-c3cc(C)no3)ccc2OC)CC1`, the survival is inactive: 82%. Turning to `CCC(=O)Nc1ccc(-c2nc3ccc(NC(=O)CC)cc3[nH]2)cc1`, the survival was inactive: 66%. On to `N#C/C(=C\c1ccc(N2CCCCC2)o1)C(N)=O`, for which the survival was inactive: 80%. Consider `O=C(COc1ccccc1)Nc1nnc2n1CCS2`, for which the survival was inactive: 86%. For `COc1ccc(C)cc1Nc1c2c(nc3ccccc13)CCC2`, the survival was inactive: 85%. For `COc1ccc(CCNC(=O)c2nc(SCc3ccc(F)cc3)ncc2Cl)cc1OC`, the survival is active: 46%. As to `CCOC(=O)N1CCC(NC(=O)c2ccc3c(c2)N(Cc2ccc(F)cc2)C(=O)c2ccccc2S3=O)CC1` (configuration not stated), the survival is inactive: 58%. In the case of `Cc1ccccc1OCC(=O)Nc1ccc2[nH]c(=O)sc2c1`, the survival was inactive: 133%.

Regarding `CCc1ccc(C2CC(=O)c3c([nH]c(C(=O)OC4CCCCCC4)c3C)C2)cc1` (configuration not stated), the survival is inactive: 130%. The value for `COc1ccc(NC(=O)CN2CCN(C3CCCCC3)C(=O)C2=O)cc1` was inactive: 102%.

The values are drawn from PubChem BioAssay AID463173 (ICCB-Longwood Screening Facility, Harvard Medical School, 2010).
